The list shows a part of the results. At the low end of the ranking the order means little.
What follows are sequences tested against T1, GST-Rok-C97-191 (UniProt O34857) (assay: protein binding microarray). Settings: Rok is a gene silencer of Bacillus subtilis; high values mean tight binding; most listed sequences are background and not binding sites; double strand, one strand shown.
T1 sequence: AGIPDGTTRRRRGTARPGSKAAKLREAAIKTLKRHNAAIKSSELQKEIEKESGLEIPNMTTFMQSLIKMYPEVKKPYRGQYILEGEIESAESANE
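Note: rank score from −0.5 (least bound) to 0.5 (best bound).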

Sequence | binding signal
GATCCTGC | -0.00642 E-score
ACGCTGAC | -0.0879 E-score
TCTACAAA | 0.133 E-score
CGAGCAGA | -0.23 E-score
GAGCTCAC | -0.0849 E-score
TATTTCGA | 0.165 E-score
CGCGCGCA | 0.114 E-score
ACGAGTAC | 0.195 E-score
GGAACAAA | 0.0445 E-score
CACTCAGA | -0.218 E-score
AGCACGTC | -0.0472 E-score
GAATTTCC | 0.13 E-score
ACGTCCCC | -0.276 E-score
CGCCAATC | -0.0908 E-score
GCCCCGAA | -0.136 E-score
ACTTTTAG | 0.0335 E-score
GACAGGCC | -0.254 E-score
AATGACAC | -0.0543 E-score
CATTTTAC | 0.315 E-score
CCCATAAG | -0.179 E-score
GACCGGAA | -0.0227 E-score
AGGATCCT | -0.243 E-score
CTGCCAAC | -0.134 E-score
AGCTTCCA | -0.0838 E-score
ACGTAGTA | 0.188 E-score

Sequence | binding signal
GAACATAC | 0.075 E-score
TACGCGCA | -0.153 E-score
CAGGTATC | -0.0408 E-score
GGAATACA | 0.118 E-score
GATATCGA | 0.223 E-score
ACTACAAT | 0.329 E-score
AGACAGCC | -0.267 E-score
AAGATATC | 0.2 E-score
ATCGTCGG | -0.118 E-score
AATTTCAG | 0.153 E-score
AATAAGCC | 0.137 E-score
AATACTCG | 0.0344 E-score
ATCTCCCC | -0.124 E-score
AATTCAAG | 0.124 E-score
CACTGGAC | -0.168 E-score
AAGACCTC | -0.317 E-score
ATGGTAAG | 0.0888 E-score
CGCTAACA | 0.105 E-score
CCTTCTCA | -0.22 E-score
TCACAACA | -0.0759 E-score
TATATAGA | 0.397 E-score
TCGTGTCA | -0.259 E-score
CCATACCC | -0.192 E-score
CATATTCA | -0.062 E-score
CACAAGGG | -0.237 E-score

Sequence | binding signal
CTTAACTA | 0.273 E-score
CCCAAAAC | -0.239 E-score
GGGCATCA | -0.0798 E-score
AAGGGTTG | -0.169 E-score
CCGATGCG | -0.235 E-score
AGATTCTA | 0.356 E-score
CGAGTCCG | -0.192 E-score
CCAAATAG | -0.0212 E-score
AGTAGCAT | 0.253 E-score
AACGATGT | -0.0901 E-score
GATCCTCC | -0.207 E-score
CGTACCGC | -0.237 E-score
GTGTGCGA | -0.272 E-score
ACAACGGC | -0.00269 E-score
CCCCTCCA | -0.402 E-score
CACATCGA | 0.00946 E-score
AATTAACA | 0.0681 E-score
GCCTCCAA | -0.208 E-score
AACGTTTC | -0.125 E-score
CTGGTTCC | -0.123 E-score
GTCCCGGA | -0.258 E-score
AAGAGGGG | -0.374 E-score
CTGGCGTC | -0.23 E-score
GTAAGCAC | -0.139 E-score
GCGCTACC | -0.0494 E-score

Sequence | binding signal
AGTTCCTC | -0.174 E-score
CTTAACAA | 0.136 E-score
AAACTAGG | 0.285 E-score
CACACTTA | 0.161 E-score
AATTACCG | 0.297 E-score
AGGTCACG | -0.0477 E-score
ATGTCCCA | -0.162 E-score
AAATCGGG | -0.165 E-score
GCGGGGAA | -0.189 E-score
GAATTTGC | 0.0297 E-score
CCCAGGTC | -0.395 E-score
AGCCACTC | -0.0578 E-score
ACGACATG | 0.133 E-score
AAGGGACC | -0.203 E-score
AGGACAAC | 0.0901 E-score
CATATGTC | 0.00539 E-score
CTCTGTGC | -0.248 E-score
ACAAGGCG | -0.233 E-score
AACGGTTG | 0.0504 E-score
GTCTTCCA | -0.213 E-score
ATACATTC | 0.27 E-score
CAAGTTGC | 0.0305 E-score
AATACGGA | 0.179 E-score
TAAGATTA | 0.199 E-score
GCTTCTTA | 0.0351 E-score

Sequence | binding signal
CGTGCCAA | -0.212 E-score
CCTACACG | -0.065 E-score
ACGCGGCA | -0.0324 E-score
CCTGAGGA | -0.246 E-score
GATTCACA | 0.101 E-score
GACACGAC | -0.0701 E-score
AAGTTTAG | 0.124 E-score
ACCGTGTC | -0.0441 E-score
GATCAGCC | -0.319 E-score
GTGATCAC | -0.0759 E-score
GCGTATAA | 0.244 E-score
AACGGTCA | -0.0986 E-score
CAGACTTA | -0.0657 E-score
ACGTTTCA | -0.124 E-score
GCAACGCA | -0.217 E-score
GCCGCAAC | -0.128 E-score
AGAGGCCA | -0.228 E-score
CTTGTACC | -0.0277 E-score
AAACGAAA | -0.0606 E-score
AGTTATGG | 0.0628 E-score
CGTTGAAA | 0.0716 E-score
AGTACAGG | -0.0501 E-score
CAAAAATG | -0.0928 E-score
CTCCCACA | -0.00235 E-score
TCAAAGCA | 0.0132 E-score

Sequence | binding signal
CAGAACGG | 0.0535 E-score
CTGGGGAC | -0.271 E-score
CCCAGTAA | -0.0491 E-score
ACAGTTCT | 0.145 E-score
GCAATGGC | -0.228 E-score
ACGAAGCC | -0.172 E-score
CGGGAGAA | -0.00882 E-score
TCGGCGCA | -0.143 E-score
AATCAGGA | -0.335 E-score
ACCCATCC | -0.127 E-score
GTGTCTTA | -0.102 E-score
ACATTCCT | 0.0128 E-score
TGTCGGAA | -0.0923 E-score
AACGTGCC | -0.218 E-score
CTCCGGTC | 0.00767 E-score
ACATTGCC | 0.0138 E-score
AGCAACGA | -0.024 E-score
AGCACTAT | 0.0129 E-score
ATCTGATA | 0.168 E-score
TACGGCAA | 0.15 E-score
AGCTACCG | 0.228 E-score
CAGAACAA | -0.108 E-score
CGTTTGCC | -0.177 E-score
AAGCCCCG | -0.183 E-score
CCATCTGC | -0.206 E-score

Sequence | binding signal
TTCCAAAA | -0.0673 E-score
ATTGCCGA | 0.107 E-score
GTGTAAAA | 0.223 E-score
ACTATTTC | 0.293 E-score
ACTCCAGC | 0.114 E-score
ACTACTTA | 0.415 E-score
GACGATTA | -0.159 E-score
AGGATGGC | -0.165 E-score
ATCTTAGA | -0.0736 E-score
ACACTTCG | -0.0858 E-score
CTGCGGAC | -0.132 E-score
ATATAGTA | 0.438 E-score
CTCCCGTA | -0.0792 E-score
GGGTGACC | -0.181 E-score
AAGCGACT | 0.00287 E-score
ATTGACTA | 0.171 E-score
GCGAAGCC | -0.234 E-score
ATGGCCTG | -0.317 E-score
CAGAGGCG | -0.224 E-score
ATAGGGTA | 0.09 E-score
AACCTCTA | 0.0362 E-score
CGAAGTAC | 0.115 E-score

Source: paper PMC6212790
